{
  "source": "the supplement of paper PMC8728848",
  "binders": {"B1": {"name": "Gal 3 (Homo sapiens), P17931 (protein)", "chain": "MADNFSLHDALSGSGNPNPQGWPGAWGNQPAGAGGYPGASYPGAYPGQAPPGAYPGQAPPGAYHGAPGAYPGAPAPGVYPGPPSGPGAYPSSGQPSAPGAYPATGPYGAPAGPLIVPYNLPLPGGVVPRMLITILGTVKPNANRIQLDFQRGNDVAFHFNPRFNENNRRVIVCNTKLDNNWGREERQSVFPFESGKPFKIQVLVEPDHFKVAVNDAHLLQYNHRVKKLNEISKLGISGDIDLTSASYTMI"}},
  "experiment_in_all_cases": "glycan array binding signal (z-score within array); higher = stronger binding",
  "conditions_in_all_cases": "glycan notation: IUPAC condensed, linker removed; mutation: A146Q",
  "key": {"Fuc(a1-2)Gal": {"molecular_target": "Fuc(a1-2)Gal", "procedure,_shortened": "(§1)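 Columns mapping to the same glycan were averaged after glycan names were converted to IUPAC-condensed notation. The data come from 3228 arrays in the Consortium for Functional Glycomics database, limited to those with an available protein sequence. Binding is reported as a within-array Z-score averaged across arrays of one protein sequence and across linkers.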"}, "Fuc(a1-2)Gal(b1-3)GalNAc": {"molecular_target": "Fuc(a1-2)Gal(b1-3)GalNAc", "procedure,_shortened": "as §1"}, "[1]": {"molecular_target": "Fuc(a1-2)Gal(b1-3)GalNAc(a1-3)[Fuc(a1-2)]Gal(b1-4)Glc", "procedure,_shortened": "as §1"}, "[2]": {"molecular_target": "Fuc(a1-2)Gal(b1-3)GalNAc(a1-3)[Fuc(a1-2)]Gal(b1-4)GlcNAc", "procedure,_shortened": "as §1"}, "[3]": {"molecular_target": "Fuc(a1-2)Gal(b1-3)GalNAc(b1-3)Gal", "procedure,_shortened": "as §1"}, "[4]": {"molecular_target": "Fuc(a1-2)Gal(b1-3)GalNAc(b1-3)Gal(a1-4)Gal(b1-4)Glc", "procedure,_shortened": "as §1"}, "[5]": {"molecular_target": "Fuc(a1-2)Gal(b1-3)GalNAc(b1-4)[Neu5Ac(a2-3)]Gal(b1-4)Glc", "procedure,_shortened": "as §1"}, "Fuc(a1-2)Gal(b1-3)GlcNAc": {"molecular_target": "Fuc(a1-2)Gal(b1-3)GlcNAc", "procedure,_shortened": "as §1"}, "[6]": {"molecular_target": "Fuc(a1-2)Gal(b1-3)GlcNAc(b1-2)Man(a1-3)[Fuc(a1-2)Gal(b1-3)GlcNAc(b1-2)Man(a1-6)]Man(b1-4)GlcNAc(b1-4)GlcNAc", "procedure,_shortened": "as §1"}, "[7]": {"molecular_target": "Fuc(a1-2)Gal(b1-3)GlcNAc(b1-3)Gal(b1-4)Glc", "procedure,_shortened": "as §1"}, "[8]": {"molecular_target": "Fuc(a1-2)Gal(b1-3)GlcNAc(b1-3)[Fuc(a1-3)[Gal(b1-4)]GlcNAc(b1-6)]Gal(b1-4)Glc", "procedure,_shortened": "as §1"}, "[9]": {"molecular_target": "Fuc(a1-2)Gal(b1-3)[Fuc(a1-4)]GlcNAc", "procedure,_shortened": "as §1"}, "[10]": {"molecular_target": "Fuc(a1-2)Gal(b1-3)[Fuc(a1-4)]GlcNAc(b1-2)Man(a1-3)[Fuc(a1-2)Gal(b1-3)[Fuc(a1-4)]GlcNAc(b1-2)Man(a1-6)]Man(b1-4)GlcNAc(b1-4)GlcNAc", "procedure,_shortened": "as §1"}, "[11]": {"molecular_target": "Fuc(a1-2)Gal(b1-3)[Fuc(a1-4)]GlcNAc(b1-3)[Fuc(a1-3)[Gal(b1-4)]GlcNAc(b1-6)]Gal(b1-4)Glc", "procedure,_shortened": "as §1"}, "[12]": {"molecular_target": "Fuc(a1-2)Gal(b1-3)[Fuc(a1-4)]GlcNAc(b1-3)[Gal(b1-4)GlcNAc(b1-6)]Gal(b1-4)Glc", "procedure,_shortened": "as §1"}, "Fuc(a1-2)Gal(b1-4)Glc": {"molecular_target": "Fuc(a1-2)Gal(b1-4)Glc", "procedure,_shortened": "as §1"}, "Fuc(a1-2)Gal(b1-4)Glc6S": {"molecular_target": "Fuc(a1-2)Gal(b1-4)Glc6S", "procedure,_shortened": "as §1"}, "Fuc(a1-2)Gal(b1-4)GlcNAc": {"molecular_target": "Fuc(a1-2)Gal(b1-4)GlcNAc", "procedure,_shortened": "as §1"}, "[13]": {"molecular_target": "Fuc(a1-2)Gal(b1-4)GlcNAc(b1-2)Man(a1-3)[Fuc(a1-2)Gal(b1-4)GlcNAc(b1-2)Man(a1-6)]Man(b1-4)GlcNAc(b1-4)GlcNAc", "procedure,_shortened": "as §1"}, "[14]": {"molecular_target": "Fuc(a1-2)Gal(b1-4)GlcNAc(b1-3)Gal(b1-4)GlcNAc", "procedure,_shortened": "as §1"}, "[15]": {"molecular_target": "Fuc(a1-2)Gal(b1-4)GlcNAc(b1-3)Gal(b1-4)GlcNAc(b1-3)Gal(b1-4)GlcNAc", "procedure,_shortened": "as §1"}, "[16]": {"molecular_target": "Fuc(a1-2)Gal(b1-4)GlcNAc(b1-3)GalNAc", "procedure,_shortened": "as §1"}},
  "note": "Some of the results follow.",
  "data": [
    {"binder": "B1", "values": [
      {"measurement": "glycan array binding signal (z-score)", "setting": "Fuc(a1-2)Gal", "result": -0.171},
      {"measurement": "glycan array binding signal (z-score)", "setting": "Fuc(a1-2)Gal(b1-3)GalNAc", "result": -0.2},
      {"measurement": "glycan array binding signal (z-score)", "setting": "[1]", "result": -0.201},
      {"measurement": "glycan array binding signal (z-score)", "setting": "[2]", "result": -0.186},
      {"measurement": "glycan array binding signal (z-score)", "setting": "[3]", "result": -0.177},
      {"measurement": "glycan array binding signal (z-score)", "setting": "[4]", "result": -0.193},
      {"measurement": "glycan array binding signal (z-score)", "setting": "[5]", "result": -0.19},
      {"measurement": "glycan array binding signal (z-score)", "setting": "Fuc(a1-2)Gal(b1-3)GlcNAc", "result": -0.105},
      {"measurement": "glycan array binding signal (z-score)", "setting": "[6]", "result": -0.147},
      {"measurement": "glycan array binding signal (z-score)", "setting": "[7]", "result": 0.176},
      {"measurement": "glycan array binding signal (z-score)", "setting": "[8]", "result": -0.199},
      {"measurement": "glycan array binding signal (z-score)", "setting": "[9]", "result": -0.192},
      {"measurement": "glycan array binding signal (z-score)", "setting": "[10]", "result": -0.192},
      {"measurement": "glycan array binding signal (z-score)", "setting": "[11]", "result": -0.195},
      {"measurement": "glycan array binding signal (z-score)", "setting": "[12]", "result": -0.015},
      {"measurement": "glycan array binding signal (z-score)", "setting": "Fuc(a1-2)Gal(b1-4)Glc", "result": -0.189},
      {"measurement": "glycan array binding signal (z-score)", "setting": "Fuc(a1-2)Gal(b1-4)Glc6S", "result": -0.188},
      {"measurement": "glycan array binding signal (z-score)", "setting": "Fuc(a1-2)Gal(b1-4)GlcNAc", "result": 0.166},
      {"measurement": "glycan array binding signal (z-score)", "setting": "[13]", "result": 0.701},
      {"measurement": "glycan array binding signal (z-score)", "setting": "[14]", "result": 1.45},
      {"measurement": "glycan array binding signal (z-score)", "setting": "[15]", "result": 2.14},
      {"measurement": "glycan array binding signal (z-score)", "setting": "[16]", "result": -0.164}
    ]}
  ]
}
